# Reference: ChEMBL document CHEMBL1157539, “Thousands of chemical starting points for antimalarial lead identification” (Nature, 2010)
# The full ranking holds about 13,000 compounds; the median of “IFI” is about 4, and the highest 2% start at about 17. Some of the results follow.
# Test: GSK_TCMDC: Inhibition Frequency Index (IFI). The number of non-kinase HTS assays where a compound showed > 50 % inhibition, expressed as a percentage of the number of such assays in which the compound was tested (-0 is zero)
# Format: functional
row,Compound,IFI [%]
1,O=c1cc(NCCCCNCc2cccc(Cl)c2)[nH]c2ccccc12,3.65
2,O=C(NCCCCN1CCC(O)(c2ccc(Cl)cc2)CC1)c1ccc(Br)cc1,-0
3,CCCCCNc1nc2nc(N)nc(N)c2nc1-c1ccccc1,4.44
4,O=C1COC2(CN1C1CCN(Cc3ccc(O)c(Cl)c3)C1)c1ccccc1-c1ccccc12 (stereo unspecified),3.15
5,Nc1nc(N)c2cc(CNc3ccc(Cl)c(Cl)c3)ccc2n1,13.6
6,O=C(Nc1cccc(CN2CCCN(Cc3ncc[nH]3)CC2)c1)c1ccc2ccccc2c1,1.38
7,CCCCNC[C@@H](O)[C@H](Cc1ccccc1)NC(=O)c1cc2c3c(c1)c(CC)cn3CCS(=O)(=O)N2C,2.92
8,CCOC(=O)c1ccc(NC(=O)Nc2ccc(Cn3ncc(N4CCCNCC4)c(Cl)c3=O)cc2)cc1,7.35
9,CCCC(=O)Nc1ccc(OCCCN(Cc2cccc(C(F)(F)F)c2)c2ccc(C#N)c(C(F)(F)F)c2)cc1,0.71
10,CCN(CC)Cc1cc(Nc2ccnc3cc(Cl)ccc23)ccc1O,2.16
11,CN1CCCc2ccc(NC(=O)c3cnc(-c4ccccc4)cn3)cc21,1.38
12,COc1ccc2c(=NN=Cc3cccc(C)n3)cc(-c3ccccc3)[nH]c2c1,0.77
13,CC(C)c1ccc(-c2noc(SCC(=O)N(C)c3ccc(F)cc3)n2)cc1,2.33
14,Cc1cc(Nc2nc(NCc3cccnc3)nc3ccccc23)n[nH]1,6.72
15,CC(=O)Nc1ccc(C(=O)Nc2cccc(-c3ccc(-c4nc5ccccc5[nH]4)s3)c2)cn1,3.6
16,O=C(COc1ccc(Cl)c(Cl)c1)NCCCCCN1CCCN(C(=O)Nc2cc(Cl)cc(Cl)c2)CC1,13.2
17,CC(=O)Nc1ccc(C(=O)Nc2ccc(-c3cccc(-c4nc5cccc(C)c5[nH]4)c3)cc2)cn1,5.45
18,O=C(/C=C/c1cccc(OC(F)(F)F)c1)NCCCCCN1CCC(c2c[nH]c3ccccc23)CC1,5.22
19,CC1(C)N=C(N)N=C(N)N1OCCCCON1C(N)=NC(N)=NC1(C)C,1.44
20,O=c1ccc2ccc(F)c3c2n1CC3CN1CCC(NCc2cccc(-c3cccs3)c2)CC1 (stereo unspecified),8.33
21,O=C(NCCCN(Cc1ccc(F)cc1)c1ccccn1)C(c1cc2ccccc2o1)N1CCN(C(c2ccccc2)c2ccccc2)CC1 (stereo unspecified),2.08
22,Cc1cc(N[C@@H](CC(C)C)C(=O)NCCCOC(C)C)nc(NCCc2ccc(F)cc2)n1,4.88
23,CN(C)c1ccc(-c2nnc(Sc3ccc(C#N)c([N+](=O)[O-])c3)n2Cc2ccco2)cc1,3.55

row,Compound,IFI [%]
1,COc1cc(Nc2ccc3cc(S(=O)(=O)N4CCCCC4C)ccc3n2)cc(OC)c1OC (stereo unspecified),4.41
2,O=C1OC2(CCN(Cc3cccc(-c4ncc[nH]4)c3)CC2)CN1CCNCc1ccccc1,-0
3,CCNC(=O)Nc1cccc(-c2ccc(-c3nc4cccc(C)c4[nH]3)s2)c1,5.88
4,Cc1cccc2nc(-c3cccc(-c4ccc(NC(=O)CC5NC(=O)c6ccccc65)cc4)c3)[nH]c12 (stereo unspecified),4.55
5,COc1ccc2ncc(C)c(CCN3CCC(NCc4ccc5c(n4)NC(=O)CS5)CC3)c2c1,2.11
6,CNC(=O)CNC(=O)COc1cccc2ccccc12,0
7,O=C(NCCc1ccc(Cl)c(Cl)c1)C1CCCN(C(=O)c2ccc(O)c(-c3ccc(Cl)c(Cl)c3)c2)C1 (stereo unspecified),1.52
8,CCOc1ccc(NC(=O)c2cccc(CN3CCCN(Cc4cccc(O)c4)CC3)c2)cc1,3.52
9,CN(C)c1ccc(-c2nc3cc(N)ccc3[nH]2)cc1,6.16
10,OC(CNC1CCCCC1)Cn1c2ccccc2c2ccccc21 (stereo unspecified),1.68
11,O=C(/C=C/c1ccc(Cl)c(Cl)c1)N1CCC(NCc2c[nH]c3ccccc23)CC1,7.69
12,CC1(C)OC[C@]2(C)[C@@H](CC[C@]3(C)C4=CC(=O)CCC4CC[C@@H]23)O1 (stereo partly specified),-0
13,COc1cc2nc(N3CCN(C(=O)c4ccc(N(C(=O)OC(C)(C)C)C(=O)OC(C)(C)C)cc4)CC3)nc(N)c2cc1OC,2.04
14,CCc1cn2c3c(cc(C(=O)N[C@@H](Cc4ccccc4)[C@H](O)CNCC(C)C)cc13)N(C)S(=O)(=O)CC2,2.26
15,COc1cc(Nc2ncnc3cc(OC)c(OC)cc23)cc([N+](=O)[O-])c1,0
16,Cc1cccc2nc(-c3ccc(-c4ccc(NC(=O)C(C)CN(C)C)cc4)s3)[nH]c12 (stereo unspecified),5.41
17,FC(F)(F)Oc1ccc(Nc2cc(-c3ccncc3)nc(-c3cccnc3)n2)cc1,-0
18,CC(C)(CNC(=O)C1CCN(Cc2ccc(Cl)cc2)CC1)c1nc(-c2ccc(Cl)c(O)c2)c(-c2ccncc2)[nH]1,5.07
19,Cc1c(CC(=O)NCCC2CCN(CCCCCNC(=O)/C=C/c3ccc(Cl)c(Cl)c3)CC2)sc2ccc(Cl)cc12,9.03
20,Oc1ccc(Cl)cc1Nc1nc(C(F)(F)F)nc2ccccc12,5.88
21,CCn1ncc(Cl)c1CN(C)S(=O)(=O)c1ccc(Br)cc1,1.89
22,CN(C)CCCOc1cccc(NC(=O)Nc2ccc(-c3ccccc3)cc2)c1,3.6
23,COc1ccc(CN2CCC(CNCCc3c(Cl)cccc3Cl)CC2)cc1,5.84
